# Reference: PubChem BioAssay AID1768 (National Center for Advancing Translational Sciences (NCATS), 2009)
# Where “and” joins values, the source holds several entries; their conditions need not be identical. Equal values may be shown once. In all, about 270,000 compounds went through this assay and about 620 (0.23%) were called active. The inconclusive results got no clear call from the source; some entries with a clear call stand among them for comparison. Calls follow the shape of the dose curve; as a rule, active = well fitted inhibition curve with a large enough effect in the polarisation, with a control signal flat (not every such curve was filed as active); inconclusive = small, poorly fitted or top-dose-only effect, or effect the other way, or a change in a side signal; inactive = no such curve, though single readings can be large or run the other way; the % refers to the polarisation. Potencies of inconclusive entries are doubtful fits and often do not repeat. “Side channel” marks fits to a control or component signal instead of the main read-out.
# Target: Menin (Homo sapiens) (UniProt O00255)
# Chain of UniProt O00255 (O00255 whole entry, looked up): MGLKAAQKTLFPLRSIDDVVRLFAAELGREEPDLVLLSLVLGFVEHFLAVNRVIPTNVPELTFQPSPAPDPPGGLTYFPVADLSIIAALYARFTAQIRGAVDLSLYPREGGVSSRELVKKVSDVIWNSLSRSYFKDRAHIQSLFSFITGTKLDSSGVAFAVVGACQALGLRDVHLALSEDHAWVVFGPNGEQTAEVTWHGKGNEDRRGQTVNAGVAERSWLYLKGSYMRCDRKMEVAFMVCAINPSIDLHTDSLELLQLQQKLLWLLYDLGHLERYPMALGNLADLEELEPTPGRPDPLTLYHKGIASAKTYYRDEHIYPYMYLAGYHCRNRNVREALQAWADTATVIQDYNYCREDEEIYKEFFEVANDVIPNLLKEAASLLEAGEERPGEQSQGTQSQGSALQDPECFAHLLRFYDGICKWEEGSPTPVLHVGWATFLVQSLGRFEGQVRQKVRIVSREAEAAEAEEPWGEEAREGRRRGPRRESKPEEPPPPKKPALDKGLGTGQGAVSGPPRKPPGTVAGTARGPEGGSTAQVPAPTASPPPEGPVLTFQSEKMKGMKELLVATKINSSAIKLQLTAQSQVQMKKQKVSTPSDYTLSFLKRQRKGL
# Experiment: qHTS Assay for Inhibitors Targeting the Menin-MLL Interaction in MLL Related Leukemias: Competition With Texas Red Labeled MLL-derived Mutant Peptide; as to FP activity change, negative = inhibition: % of control where 0% means no effect
# Conditions: fluorescence polarization; FP activity change, negative = inhibition: at 61.6 µM (top of the series)
# Potency is read from the fitted curve at half-maximal effect; tags tell the direction and shape of the fitted curve or compound fluorescence and quenching.
Structure (SMILES),Potency,"FP activity change, negative = inhibition"
NS(=O)(=O)c1ccc(Nc2nc(-c3cccc([N+](=O)[O-])c3)cs2)cc1,"inconclusive: 15.8 µM [quencher, side channel, partial curve]",–
COc1ccc(NC(=S)NCCc2c(C)[nH]c3ccc(OC)cc23)cc1,"inconclusive: 25.1 µM [quencher, side channel, single point]",–
COC(=O)c1nn(-c2ccc3c(c2)CCN3C(C)=O)cc1O,inactive,–
Cc1cccc(NC(=O)CSc2nc(-c3ccccc3)c(C#N)c(=O)[nH]2)c1C,"inconclusive: 8.91 µM [quencher, side channel, partial curve]",–
CCc1nnc(NC(=O)CSc2nc3c(c(=O)n2-c2ccccc2OC)SCC3)s1,"inconclusive: 22.4 µM [inhibitor, partial curve]",–
CC(=O)Nc1ccc(-c2csc(NC(=O)Nc3ccccc3)n2)cc1,"inconclusive: 12.6 µM [quencher, side channel, partial curve]",–
O=C(Nc1ccc(N2CCN(C(=O)c3ccccc3)CC2)c(Cl)c1)c1ccc(Br)o1,inactive,–
Cc1sc(NC(=O)c2cc(-c3ccccc3)nc3ccccc23)c(C(N)=O)c1C,"inconclusive: 22.4 µM [fluorescent, side channel, partial curve]",–
Nc1ccc2c3c(cccc13)C(=O)NC2=O,"inconclusive: 8.91 µM [fluorescent, side channel, single point] and inconclusive: 15.8 µM [inhibitor, partial curve]",–
Cc1cc(C(=O)C(C)Sc2cccc[n+]2[O-])c(C)n1-c1ccc(Cl)cc1 (stereo unspecified),"inconclusive: 39.8 µM [fluorescent, side channel, single point]",–
CCOc1ccc(NC(=O)CC2SC(=O)N(c3ccccc3)C2=O)cc1 (stereo unspecified),"inconclusive: 17.8 µM [quencher, side channel, partial curve]",–
CCOC(=O)C1=C(C)N=c2s/c(=C\c3ccc(OCC(=O)O)cc3)c(=O)n2C1c1ccccc1OC (stereo unspecified),"inconclusive: 12.6 µM [quencher, side channel, partial curve]",–
N#C/C(=C/c1ccc(O)c(O)c1)c1nc2ccccc2[nH]1,"inconclusive: 25.1 µM [quencher, side channel, partial curve]",–
CCCCc1ccc(NC(=O)Nc2cccnc2)cc1,"inconclusive: 28.2 µM [quencher, side channel, single point]",–
O=C(Nc1ccc(NC(=O)c2cccs2)c(Cl)c1)c1cccs1,"inconclusive: 20 µM [quencher, side channel, partial curve]",–
O=C(COC(=O)c1ccccc1Cc1ccccc1)Nc1ccc(SC(F)F)cc1,"inconclusive: 3.55 µM [quencher, side channel, full curve]",–
COc1ccc([C@@H]2[C@@H]3C(=O)N(C(C)(C)C)C(=O)[C@@H]3[C@]3(Cc4ccc(Cl)cc4)C(=O)N(c4cccc(Br)c4)C(=O)N23)cc1,"inconclusive: 20 µM [inhibitor, single point]",–
COc1ccccc1N1CCN(C(=O)c2ccc3c(c2)NC(=O)C(CSCc2ccccc2C)N3)CC1 (stereo unspecified),"inconclusive: 22.4 µM [quencher, side channel, single point]",–
O=C(Nc1ccsc1C(=O)O)c1cccc(C(F)(F)F)c1,"inconclusive: 28.2 µM [quencher, side channel, single point]",–

Structure (SMILES),Potency,"FP activity change, negative = inhibition"
CCCCC(=O)Nc1ccc2c(c1)nc(CN1CCN(C(=O)OCC)CC1)n2C,"inconclusive: 44.7 µM [inhibitor, partial curve, poor fit]",–
C=CCNC(=S)NNC(=O)c1cccn(Cc2ccc(Cl)cc2Cl)c1=O,"inconclusive: 11.2 µM [inhibitor, partial curve]",–
O=C(N/N=C\c1cc(Br)ccc1O)c1ccc(S(=O)(=O)N2CCCCC2)cc1,"inconclusive: 7.94 µM [quencher, side channel, full curve]",–
O=C(O)c1cc([N+](=O)[O-])c(Nc2cccc3ccccc23)c([N+](=O)[O-])c1,"inconclusive: 35.5 µM [quencher, side channel, single point]",–
O=C1Oc2ccccc2C(=O)/C1=C/c1ccccc1O,"inconclusive: 14.1 µM [quencher, side channel, partial curve]",–
CN1CCC(OC(c2ccccc2)c2ccccc2)CC1,inactive,–
COc1cccc(C2NC(=O)c3sc(=S)n(-c4ccccc4)c3N2)c1 (stereo unspecified),"inconclusive: 39.8 µM [quencher, side channel, single point]",–
C[C@@H]1CC[C@H]2C(=O)O[C@H](CN=[N+]=[N-])CN2[C@@H]1c1ccc(Br)cc1,–,inactive: 12.1% [at 11.7 µM]
Brc1ccc2nc(-c3c[nH]c4ccccc34)cn2c1,"inconclusive: 17.8 µM [quencher, side channel, single point]",–
CCCSc1nnc(NC(=O)c2sc3nc(-c4cccs4)ccc3c2N)s1,"inconclusive: 15.8 µM [quencher, side channel, partial curve]",–
S=C(Nc1ccc(N2CCOCC2)cc1)Nc1ccc2snnc2c1,"inconclusive: 31.6 µM [quencher, side channel, single point]",–
C/C(CC(=O)Nc1cccc(Cl)c1Cl)=N\NC(=O)c1ccccc1C,"inconclusive: 7.08 µM [quencher, side channel, partial curve]",–
O=C(Oc1cccc2cccnc12)c1ccccc1,inactive,–
CC(C)(C)c1ccc(OCCOCCn2cnc3ccccc3c2=O)cc1,"inconclusive: 39.8 µM [fluorescent, side channel, partial curve]",–
CCOC(=O)N1CCN(C(=O)c2cc(-c3ccc(F)cc3)[nH]c2C)CC1,"inconclusive: 3.55 µM [inhibitor, full curve, poor fit]",–
Cc1cc(NCc2ccccc2)n2ncc(-c3ccccc3)c2n1,"inconclusive: 5.01 µM [quencher, side channel, full curve]",–
Cc1cc(N2CCCCCC2)n2nc(C)c(-c3ccccc3)c2n1,"inconclusive: 6.31 µM [inhibitor, full curve, poor fit]",–
Cc1ccc(CN(CC(O)COc2cccc3[nH]cc(C)c23)C(C)(C)C)cc1 (stereo unspecified),"inconclusive: 25.1 µM [inhibitor, partial curve]",–
Cc1nn2c(N)c(-c3ccccc3)cnc2c1-c1ccccc1,"inconclusive: 25.1 µM [quencher, side channel, single point]",–

Structure (SMILES),Potency,"FP activity change, negative = inhibition"
CCCCn1c(=O)[nH]c(=O)c2c1nc(-c1ccc(-c3ccccc3Br)o1)n2CCOC,inactive,–
Cc1ccc(S(=O)(=O)NN2C(=O)/C(=C/c3ccc(F)cc3)SC2=S)cc1,"inconclusive: 22.4 µM [quencher, side channel, single point]",–
CCc1nnc(NC(=O)c2ccc(S(=O)(=O)N3CCN(Cc4ccccc4)CC3)cc2)s1,"inconclusive: 35.5 µM [fluorescent, side channel, single point]",–
Cc1cc(=O)oc2cc(OCC(=O)OCC(=O)NC(C)C)ccc12,"inconclusive: 39.8 µM [inhibitor, single point]",–
Cn1cnnc1Sc1ccc(/C=C(\CCC(=O)O)c2nc3ccccc3s2)cc1[N+](=O)[O-],"inconclusive: 25.1 µM [quencher, side channel, single point]",–
CC(=O)c1cccc(NC(=O)c2ccc(NC(=O)CCS(=O)(=O)c3cccs3)cc2)c1,"inconclusive: 39.8 µM [inhibitor, single point]",–
Cc1ccc(C)c(-c2csc(Nc3ncccn3)n2)c1,"inconclusive: 3.55 µM [inhibitor, full curve]",–
CS(=O)(=O)N(CC(O)Cn1c2ccccc2c2ccccc21)c1cccc2ccccc12 (stereo unspecified),"inconclusive: 39.8 µM [inhibitor, single point]",–
O=C(O)C(c1ccccc1)N1C(=O)/C(=C\c2ccc(O)c(O)c2)SC1=S (stereo unspecified),"inconclusive: 22.4 µM [fluorescent, side channel, partial curve]",–
CSc1cccc(NC(=O)CCn2c(=O)c3cccn3c3cccnc32)c1,"inconclusive: 28.2 µM [quencher, side channel, single point]",–
CC(C)CCN1CCN(Cc2cccc(C(F)(F)F)c2)CC1CCO (stereo unspecified),"inconclusive: 39.8 µM [fluorescent, side channel, single point]",–
CCC(=O)Nc1nnc(C(C)(C)C)s1,"inconclusive: 39.8 µM [inhibitor, single point]",–
O=C(c1ccc(Cl)c([N+](=O)[O-])c1)N1CCN(c2ccccc2)CC1,"inconclusive: 31.6 µM [inhibitor, single point]",–
N#Cc1ccccc1CSc1nc2ccc(NC(=O)c3ccccc3C(=O)O)cc2s1,"inconclusive: 22.4 µM [quencher, side channel, partial curve]",–
COc1cc([C@@H]2C[C@H]3CN(c4ccccc4)C(=O)[C@]34CCCN24)cc(OC)c1OC,"inconclusive: 28.2 µM [inhibitor, single point]",–
Cc1ccc(-c2ccc(=O)n(Cc3ccc(F)cc3Cl)n2)cc1,"inconclusive: 31.6 µM [fluorescent, side channel, partial curve]",–
Cn1nnnc1SCC(=O)N1CCCCC1,inactive,–
Cc1cccc(Cn2c(N3CCN(c4ccccc4)CC3)nc3c2c(=O)n(C)c(=O)n3C)c1,"inconclusive: 7.94 µM [fluorescent, side channel, partial curve]",–
